{
  "source": "paper PMC4336329",
  "about": "(PLoS ONE, 2015)",
  "note": "Screen size: about 310,000 compounds; about 2,200 (0.71%) showed an effect of 50% or more. The effect is printed as a negative number. The list shows a part of the results.",
  "data": [
    {"molecular_target": "human ether-à-go-go-related gene (hERG) potassium channel (human, UniProt Q12809)", "sequence (Q12809 whole entry, looked up)": "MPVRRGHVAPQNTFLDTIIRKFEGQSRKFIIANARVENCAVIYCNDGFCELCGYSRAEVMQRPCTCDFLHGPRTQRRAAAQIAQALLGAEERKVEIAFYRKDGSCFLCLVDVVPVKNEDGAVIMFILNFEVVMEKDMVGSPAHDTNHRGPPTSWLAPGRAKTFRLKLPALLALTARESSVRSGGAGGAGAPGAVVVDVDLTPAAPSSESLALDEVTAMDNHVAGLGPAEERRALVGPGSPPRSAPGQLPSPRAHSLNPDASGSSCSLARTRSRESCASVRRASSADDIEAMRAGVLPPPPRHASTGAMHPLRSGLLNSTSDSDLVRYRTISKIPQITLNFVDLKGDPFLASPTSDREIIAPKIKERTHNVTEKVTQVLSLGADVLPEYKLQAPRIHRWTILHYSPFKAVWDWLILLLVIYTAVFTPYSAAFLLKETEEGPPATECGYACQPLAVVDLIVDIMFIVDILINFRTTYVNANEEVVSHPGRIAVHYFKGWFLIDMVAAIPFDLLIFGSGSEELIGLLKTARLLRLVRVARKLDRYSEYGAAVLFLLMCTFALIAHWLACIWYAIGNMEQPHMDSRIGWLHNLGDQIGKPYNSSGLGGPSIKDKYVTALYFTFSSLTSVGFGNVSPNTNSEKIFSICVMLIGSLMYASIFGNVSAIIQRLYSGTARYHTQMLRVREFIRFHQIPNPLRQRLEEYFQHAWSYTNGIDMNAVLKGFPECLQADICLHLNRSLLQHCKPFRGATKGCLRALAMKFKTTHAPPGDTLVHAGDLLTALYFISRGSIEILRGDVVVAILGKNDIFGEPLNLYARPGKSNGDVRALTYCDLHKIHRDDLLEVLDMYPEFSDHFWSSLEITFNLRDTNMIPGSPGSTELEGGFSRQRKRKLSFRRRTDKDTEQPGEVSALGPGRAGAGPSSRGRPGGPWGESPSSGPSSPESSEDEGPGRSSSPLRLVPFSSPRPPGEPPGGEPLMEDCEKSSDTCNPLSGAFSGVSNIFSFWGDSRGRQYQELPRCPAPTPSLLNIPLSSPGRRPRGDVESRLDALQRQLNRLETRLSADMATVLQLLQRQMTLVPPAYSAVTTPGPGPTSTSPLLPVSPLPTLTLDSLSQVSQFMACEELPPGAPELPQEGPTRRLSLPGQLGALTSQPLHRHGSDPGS", "test": "primary screen, population patch clamp on CHO cells stably expressing hERG", "units": {"hERG current change (%, negative = inhibition) at 1uM": "%"}, "values": [
      {"compound": "COc1ccc(N(Cc2cc3cc(C)ccc3[nH]c2=O)C(C)=O)cc1", "hERG current change (%, negative = inhibition) at 1uM": 12.1},
      {"compound": "Cc1cc(S(=O)(=O)NCCc2ccncc2)cc(C)c1F", "hERG current change (%, negative = inhibition) at 1uM": 8.58},
      {"compound": "COC(=O)c1c(C(=O)OC)c(-c2cccc(C)c2)n2c1CS(=O)(=O)C2", "hERG current change (%, negative = inhibition) at 1uM": -13.9},
      {"compound": "CC(=O)Nc1ccc(SCc2c(C)noc2C)cc1", "hERG current change (%, negative = inhibition) at 1uM": 14.3},
      {"compound": "O=C(Cn1cnc2ccc(Cl)cc2c1=O)c1cccs1", "hERG current change (%, negative = inhibition) at 1uM": 10.2},
      {"compound": "CCNC(=O)C(=O)NCC1OCCCN1S(=O)(=O)c1ccc(F)cc1C", "note": "(centres unmarked)", "hERG current change (%, negative = inhibition) at 1uM": 7.65},
      {"compound": "C=CCn1c(SCC(=O)c2c(N)n(CCC)c(=O)n(C)c2=O)nc2sc(CC)cc2c1=O", "hERG current change (%, negative = inhibition) at 1uM": 8.51},
      {"compound": "N#CC1=C(N)NC(SCC(=O)c2ccc(Cl)cc2)=C(C#N)C12CCCC2", "hERG current change (%, negative = inhibition) at 1uM": 1.61},
      {"compound": "Cc1ccc(NC(=O)CN(C)C(=O)CSc2nc(C)cs2)cc1", "hERG current change (%, negative = inhibition) at 1uM": 3.7},
      {"compound": "COCC(C)n1c(C)cc(C(=O)Cn2nc(C(=O)O)c3ccccc3c2=O)c1C", "note": "(centres unmarked)", "hERG current change (%, negative = inhibition) at 1uM": -0.976},
      {"compound": "CC1(C)C2CC=C(/C=N/NC(=O)C3CC3)C1C2", "note": "(centres unmarked)", "hERG current change (%, negative = inhibition) at 1uM": 10.6},
      {"compound": "O=C(O)c1cccc(NC(=O)C23CC4CC(C2)CC(n2cnc(Cl)n2)(C4)C3)c1", "hERG current change (%, negative = inhibition) at 1uM": -10.2},
      {"compound": "COC(=O)c1cc2occc2n1CC(=O)Nc1ccc(OC)c(OC)c1", "hERG current change (%, negative = inhibition) at 1uM": 11},
      {"compound": "Cc1ccccc1OCCC(=O)OCC(=O)NC(C)c1ccccc1", "note": "(centres unmarked)", "hERG current change (%, negative = inhibition) at 1uM": -0.773},
      {"compound": "O=C(NCc1ccccc1F)C1CCC(=O)N(Cc2ccc(Cl)cc2)C1", "note": "(centres unmarked)", "hERG current change (%, negative = inhibition) at 1uM": -7.43},
      {"compound": "CCn1c(-c2c(Cl)c(C)nn2C)n[nH]c1=S", "hERG current change (%, negative = inhibition) at 1uM": 5.26},
      {"compound": "Cc1cc(CN2CCC(n3nccc3NC(=O)c3ccccc3Cl)CC2)cc(C)c1O", "hERG current change (%, negative = inhibition) at 1uM": -64.4},
      {"compound": "Cc1csc(CCc2nc(C)cs2)n1", "hERG current change (%, negative = inhibition) at 1uM": 15},
      {"compound": "CCn1ncc(Br)c1C(=O)Nc1ccc(F)cc1F", "hERG current change (%, negative = inhibition) at 1uM": 14.1},
      {"compound": "Cc1cc2c(cc1S(=O)(=O)Nc1c(C)cccc1C)n(C)c(=O)c(=O)n2C", "hERG current change (%, negative = inhibition) at 1uM": 1.4},
      {"compound": "NC(=O)c1ccc(NC(=O)CCN2C(=O)c3ccccc3C2=O)cc1", "hERG current change (%, negative = inhibition) at 1uM": 10.8},
      {"compound": "COC(=O)c1ccc2c(=O)n(CCCN3CCCC3=O)c(=S)[nH]c2c1", "hERG current change (%, negative = inhibition) at 1uM": -7.34},
      {"compound": "CC(=O)Nc1ccc(NC(=O)CSc2nnc(NC(=O)c3cccc(F)c3)s2)cc1", "hERG current change (%, negative = inhibition) at 1uM": 17.6},
      {"compound": "O=C(O)CCC(=O)N(Cc1cccs1)Cc1cccs1", "hERG current change (%, negative = inhibition) at 1uM": 4.24},
      {"compound": "Cc1nc(-c2ccccc2Cl)sc1C(=O)/C=C/N(C)C", "hERG current change (%, negative = inhibition) at 1uM": 12.7},
      {"compound": "COc1ccc2c(c1OC)C(=O)N(c1nc(SC)n[nH]1)C2=O", "hERG current change (%, negative = inhibition) at 1uM": 15.2},
      {"compound": "Cc1cccc(NC(=S)NNC(=O)c2ccco2)c1", "hERG current change (%, negative = inhibition) at 1uM": 6.7},
      {"compound": "CCCn1c(C(O)c2cc(OC)ccc2OC)nc2ccccc21", "note": "(centres unmarked)", "hERG current change (%, negative = inhibition) at 1uM": 0.412},
      {"compound": "COc1cc(NC(=O)COC(=O)CNC(=O)C23CC4CC(CC(C4)C2)C3)cc(OC)c1", "hERG current change (%, negative = inhibition) at 1uM": 14.6},
      {"compound": "CCOc1c2ccc(C(=O)NCc3ccc(C)cc3)cc2nn1CCOC", "hERG current change (%, negative = inhibition) at 1uM": 15.3},
      {"compound": "Cc1onc(-c2c(F)cccc2Cl)c1C(=O)OCn1nnc2ccccc2c1=O", "hERG current change (%, negative = inhibition) at 1uM": 14.9},
      {"compound": "COc1ccc(NC(=O)COC(=O)Cn2c(C)nc3ccccc32)cc1OC", "hERG current change (%, negative = inhibition) at 1uM": 14.4},
      {"compound": "Clc1cccc(CNCCc2c[nH]c3ccccc23)c1.O=C(O)C(=O)O", "hERG current change (%, negative = inhibition) at 1uM": 7.52},
      {"compound": "Cc1ccc(NC(=O)N2CCC(C(N)=O)CC2)cc1", "hERG current change (%, negative = inhibition) at 1uM": 9.5},
      {"compound": "CCCc1cc(=O)n2[nH]c(C)nc2n1", "hERG current change (%, negative = inhibition) at 1uM": 9.03},
      {"compound": "O=C(CNC(=O)c1ccc(Cl)cc1)OCn1nnc2ccccc2c1=O", "hERG current change (%, negative = inhibition) at 1uM": 10.7},
      {"compound": "Brc1ccc(OCCOCCOc2cccc3cccnc23)cc1", "hERG current change (%, negative = inhibition) at 1uM": 0.0171},
      {"compound": "CN(C)Cc1c(C(=O)N/N=C/c2cccnc2)nnn1-c1nonc1N", "hERG current change (%, negative = inhibition) at 1uM": 10.4},
      {"compound": "CCCCSc1nc(C)[nH]c1[N+](=O)[O-]", "hERG current change (%, negative = inhibition) at 1uM": 13.9},
      {"compound": "O=C1CC(C(=O)N2CCc3ccccc32)CN1c1ccc(F)cc1", "note": "(centres unmarked)", "hERG current change (%, negative = inhibition) at 1uM": -17.9},
      {"compound": "O=[N+]([O-])c1ccc(-c2nn(-c3ccccc3)cc2/C=N/n2c(-c3cccs3)n[nH]c2=S)cc1", "hERG current change (%, negative = inhibition) at 1uM": 15.9},
      {"compound": "CCOC(=O)C1CSC(CC(=O)Nc2ccc(OCC)cc2)C(=O)N1", "note": "(centres unmarked)", "hERG current change (%, negative = inhibition) at 1uM": -5.01},
      {"compound": "COc1ccccc1NC(=O)NC1(C(=O)N2CCC(C)CC2)CCCCC1", "hERG current change (%, negative = inhibition) at 1uM": 17.8},
      {"compound": "COCCn1c(SCC(=O)NCCc2ccccc2)nc2c([nH]c3ccccc32)c1=O", "hERG current change (%, negative = inhibition) at 1uM": 20.6}
    ]}
  ]
}
